# In all, about 4,100 sequences were measured (“relative CpG methylation activity (normalised to average over all NNNCGNNN flanks)”: median about 0.94, highest 2% from about 1.9 on). Some of the results follow.
# Biological target: DNMT3B catalytic domain (mouse) (UniProt O88509)
# Assay: relative CpG methylation activity (normalised to average over all NNNCGNNN flanks) (relative (1 = mean)); higher = more methylation of the central CpG
# Details: system: in vitro, murine catalytic domain; CpG state: hemimethylated substrate pool; residues: 558-859
# Procedure, shortened: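 Each experiment was done in two independent repeats, using pooled dsDNA substrates with a central CpG flanked by 10 random nucleotides, methylated for 60 min at 37 °C by the murine DNMT3A or DNMT3B catalytic domain with 0.8 mM S-adenosyl-L-methionine in HEPES pH 7.5 buffer. After bisulfite conversion and PCR, the DNA was read by Illumina sequencing. Methylation was averaged per context, defined by three bases on each side of the CpG. Relative methylation activity is each context's average methylation over the mean of all contexts.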
# UniProt O88509, sequence (O88509 558-859): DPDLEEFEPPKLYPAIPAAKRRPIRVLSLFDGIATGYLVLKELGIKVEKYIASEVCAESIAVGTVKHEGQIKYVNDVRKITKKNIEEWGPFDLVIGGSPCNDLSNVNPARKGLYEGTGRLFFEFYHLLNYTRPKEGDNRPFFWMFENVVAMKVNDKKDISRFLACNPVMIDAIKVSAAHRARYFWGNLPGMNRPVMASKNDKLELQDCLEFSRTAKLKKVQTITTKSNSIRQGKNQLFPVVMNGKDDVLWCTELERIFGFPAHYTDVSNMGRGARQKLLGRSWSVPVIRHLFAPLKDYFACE
row,Sequence,relative CpG methylation activity
1,CTACGGCA,2.23
2,ATGCGTAG,0.627
3,CGGCGAGA,1
4,CCCCGGCT,2.05
5,CGCCGACC,0.849
6,GCACGAAT,1.31
7,CCACGCGA,0.831
8,GGTCGTCG,0.375
9,TAACGTTT,0.864
10,GCGCGCAC,0.678
11,GTTCGTGC,0.635
12,AATCGCAT,0.484
13,TTACGCAC,1.58
14,TAACGTTC,0.899
15,GCTCGCGT,0.5
16,TGCCGTTA,0.189
17,GTCCGGTA,1.27
18,TATCGGCT,1.8
19,TCTCGGAT,0.871
20,TGCCGATT,0.867
21,ATTCGAAT,1.28
22,TTCCGTCT,1.22
23,AGACGGCG,1.94
24,AGGCGTGG,0.149
25,ACACGTCA,1.08

row,Sequence,relative CpG methylation activity
1,GGACGTCT,0.49
2,AGTCGGAG,0.701
3,GTACGCTT,1.4
4,ATACGGGG,1.61
5,CGGCGTTG,0.273
6,AGACGGTG,1.51
7,TTCCGAGC,1.9
8,CACCGATC,1.71
9,GAACGCGC,1.42
10,TTACGCCC,1.66
11,TGCCGCGT,0.176
12,GCCCGTAA,0.412
13,CAGCGGTG,0.603
14,GGGCGAGT,1.12
15,CACCGTCT,0.628
16,CTACGGAC,1.64
17,GAGCGTTA,0.536
18,ACCCGAGC,1.75
19,CGTCGTCG,0.566
20,AGGCGAGG,0.885
21,TTGCGTCG,1.01
22,TGACGATT,1.54
23,CTCCGCGC,1.11
24,TCTCGTCA,0.921
25,AAACGCAC,1.13

row,Sequence,relative CpG methylation activity
1,GAGCGGAA,0.488
2,CAACGGCC,1.93
3,TAACGCAG,0.89
4,AAACGCGC,1.46
5,AGTCGTAC,0.709
6,GATCGGAT,0.566
7,GCCCGAAG,1.05
8,CTGCGGTA,1.52
9,GTGCGCCT,1.08
10,GGGCGTAC,0.51
11,AGGCGATT,1.28
12,AGACGACA,1.03
13,TAGCGAAG,0.804
14,CCCCGGGC,1.61
15,TGACGCAA,0.494
16,CACCGGCG,1.46
17,GTGCGAGG,1.37
18,CGACGTAG,0.608
19,ATCCGGAT,0.823
20,ATCCGGTA,1.23
21,TCGCGAGT,0.929
22,AGACGCAG,0.692
23,GCGCGTAG,0.603
24,TGACGTAC,0.995
25,AGGCGCGC,0.51

row,Sequence,relative CpG methylation activity
1,CGGCGCAC,0.407
2,TGCCGAGG,0.761
3,GCACGCTG,0.98
4,CTACGCTC,1.91
5,GTCCGTTG,0.423
6,ACCCGGCA,1.58
7,ATACGTTC,1.34
8,ATGCGCAT,0.608
9,AGTCGCGC,0.846
10,GGGCGGTC,1.1
11,TATCGGGC,1.71
12,CGCCGGTA,0.741
13,ACCCGTAT,0.451
14,GGGCGGTA,0.67
15,AGGCGGAA,0.276
16,TGTCGTCC,0.886
17,TGTCGTCG,0.432
18,TTCCGAGT,1.83
19,CGCCGACA,0.773
20,ACACGGTG,1.2
21,CCACGGTC,1.76
22,ATGCGGTT,1.06
23,ACACGGCA,1.89
24,CTCCGCTC,1.27
25,CTCCGGTA,1.72

row,Sequence,relative CpG methylation activity
1,GCTCGAGG,1.01
2,GTACGCAG,0.794
3,CGGCGGAG,0.317
4,AAACGCAT,0.997
5,ATGCGGCA,1.52
6,GATCGCTA,0.629
7,CAGCGCAC,0.598
8,GGACGAGG,1.41
9,GTCCGTTT,0.664
10,CCGCGGGG,0.959
11,TTCCGTTT,0.673
12,ATGCGCAG,0.568
13,CTGCGAGG,1.25
14,GTCCGCCA,1.02
15,AAACGTGA,0.629
16,GCTCGCCA,0.72
17,GGACGATT,1.32
18,TGACGACC,0.905
19,CGACGAAC,1.17
20,CGCCGGCC,1.22
21,TCACGAAA,1.39
22,GTCCGCCT,1.2
23,GAACGTTC,1.07
24,GAGCGTAC,0.826
25,AGCCGAAG,0.633

row,Sequence,relative CpG methylation activity
1,AGTCGTCG,0.57
2,TAACGGTT,1.38
3,ATGCGCAA,0.523
4,CAGCGGCT,1.17
5,TCCCGGAC,1.24
6,CGGCGTTA,0.375
7,TAACGTAC,1.33
8,CGGCGTGA,0.188
9,CGTCGGCA,1.59
10,CGTCGCAA,0.344
11,CACCGATA,1.48
12,AACCGGGC,0.932
13,CCTCGATT,1.35
14,CAGCGCAA,0.332
15,GCCCGTTA,0.489
16,CTACGGGT,1.94
17,GCTCGGTC,1.45
18,GCCCGAGC,1.61
19,ACGCGTAC,0.922
20,CATCGTCT,0.994
21,GACCGTCT,0.495
22,AAGCGTAT,0.561
23,AAGCGCTA,0.473
24,TTCCGCAT,0.754
25,CCTCGCCG,0.844

row,Sequence,relative CpG methylation activity
1,GTGCGATG,1.11
2,AACCGTAA,0.226
3,ACCCGCCA,0.845
4,CGCCGGAA,0.51
5,TGACGCGT,0.737
6,TGGCGGAA,0.496
7,CCCCGAGC,1.93
8,CTCCGGGC,2.05
9,GGGCGCCA,0.492
10,GAACGCGG,0.853
11,ACTCGACA,1.23
12,CGGCGTAG,0.466
13,CTACGATC,1.92
14,GCCCGTAC,1.01
15,ACCCGCAG,0.314
16,CACCGTGA,0.304
17,GCTCGGGG,1.29
18,CGGCGTAC,0.618
19,TTCCGGAT,1.22
20,GCACGTTG,0.737
21,TCACGCTC,1.4
22,GATCGGCA,1.83
23,TGTCGTCT,0.452
24,TTACGATG,1.53
25,TAACGAGA,1.72

row,Sequence,relative CpG methylation activity
1,AGCCGTTC,0.343
2,GGTCGGAC,0.72
3,CTTCGTAA,0.672
4,ACTCGATG,1.23
5,CTGCGATG,1.15
6,GCTCGCAA,0.333
7,TAACGGAT,1.01
8,AGACGGGC,1.32
9,TAACGCAT,0.869
10,CGACGAGG,1.21
11,TCTCGTAG,0.507
12,GATCGGAA,0.661
13,CTACGAGG,1.68
14,AAACGCGG,1.24
15,GTCCGCTT,0.914
16,GTACGGGA,1.73
17,GGACGTAG,0.511
18,ACACGACC,1.59
19,GACCGTAG,0.253
20,CAGCGTCC,0.859
21,GCCCGCCT,0.861
22,CGGCGTGG,0.219
23,TTTCGACC,1.74
24,GTACGCGG,1.53
25,TTTCGCAA,0.7

row,Sequence,relative CpG methylation activity
1,ATGCGCGT,0.658
2,TCCCGTCT,1.14
3,ATGCGTTA,0.562
4,ATACGGAG,1.21
5,AATCGAGA,1.7
6,CCGCGCTC,0.988
7,ATGCGAAC,1.3
8,TGGCGTAC,0.655
9,CGACGAGT,1.4
10,GCACGATC,1.71
11,CCGCGAAG,0.749
12,CGACGCCA,1.07
13,TTCCGGGT,1.7
14,GAACGCCG,1.23
15,TGACGGGG,1.08
16,CATCGGTA,1.26
17,AAACGGAT,0.919
18,TTCCGGTT,2.2
19,AAGCGCCC,0.778
20,GTACGAAA,1.8
21,TATCGTTA,0.337
22,TCTCGTGA,0.332
23,ACGCGCGA,0.411
24,AGACGGGT,0.883
25,TTTCGACG,1.48

row,Sequence,relative CpG methylation activity
1,CGACGGCT,1.25
2,GCTCGAGT,1.34
3,AGGCGTTT,0.321
4,GGACGTGT,0.376
5,CGACGTAA,0.604
6,ACTCGGTC,1.46
7,GGTCGGTA,0.868
8,GTCCGTGA,0.424
9,TATCGGAA,0.708
10,GCGCGGAG,0.421
11,GCGCGTCT,0.489
12,CGTCGCGA,0.356
13,CTACGTGC,1.27
14,GGCCGTCT,0.189
15,TCACGCCC,1.41
16,TCTCGCGC,0.78
17,TTCCGAAA,1.64
18,TCTCGCGT,0.567
19,GTCCGTGG,0.26
20,ATCCGACT,1.4
21,CGTCGTGG,0.229
22,CCCCGGTG,1.19
23,TCTCGTAC,0.984
24,CTCCGAAT,1.65
25,CCGCGTTC,0.83

row,Sequence,relative CpG methylation activity
1,GCCCGCGA,0.343
2,ATGCGACG,1.02
3,AGCCGTAA,0.107
4,ACGCGGCC,1.21
5,GTCCGGCC,1.77
6,GTGCGACT,0.786
7,TGTCGATA,1.31
8,TCGCGCCC,1.02
9,TTCCGACT,1.52
10,GGACGTCC,0.987
11,TGTCGATC,1.75
12,GAACGACT,1.42
13,TGACGGTC,1.79
14,GGACGTCG,0.538
15,CGTCGAGA,1.6
16,TATCGGTA,1.31
17,TGACGAAG,0.818
18,GCACGGGA,1.23
19,GATCGGGG,1.31
20,TAGCGTAT,0.712
21,CGTCGGGC,1.26
22,GGCCGCGA,0.185
23,CGGCGGCG,1.12
24,GGGCGCGA,0.153
25,ACTCGCAA,0.415

row,Sequence,relative CpG methylation activity
1,ATCCGCGC,0.826
2,GGGCGTTT,0.126
3,CGGCGTCC,0.628
4,AGTCGCCC,0.778
5,AGTCGGAT,0.542
6,CGGCGCCG,0.455
7,ACGCGTCA,0.64
8,CCTCGGCT,1.89
9,CTGCGGGA,1.38
10,ATTCGTGG,0.142
11,GACCGTGT,0.146
12,AGTCGAGC,1.75
13,GTGCGCGG,0.595
14,GCACGGGT,1.21
15,GGTCGGGT,1.56
16,ACGCGCTT,0.705
17,CACCGTAT,0.274
18,AAACGAAC,1.64
19,TACCGGGT,0.804
20,CGTCGGCT,1.46
21,TTGCGGTA,1.17
22,GGTCGGGA,0.713
23,TCTCGGGG,1.35
24,TATCGTAG,0.359
25,AAGCGCTC,0.641

row,Sequence,relative CpG methylation activity
1,CTTCGGCA,1.97
2,AAGCGTAA,0.489
3,GCACGCCG,1.29
4,TCCCGCGG,0.667
5,TTTCGCCT,1.44
6,ATTCGGTG,1.11
7,TTCCGGAA,0.997
8,AACCGCCT,0.415
9,GGTCGCGT,0.3
10,AGCCGTGT,0.0963
11,AATCGCGG,0.474
12,CCACGATT,1.65
13,AAACGAGG,1.63
14,ACACGTGA,0.622
15,CAACGATG,1.43
16,CATCGTCA,0.986
17,GAGCGTGG,0.328
18,GGTCGTAC,0.657
19,GATCGTAA,0.184
20,CTCCGTGG,0.512
21,CTGCGGCT,1.47
22,GTACGCTC,1.53
23,ATGCGTGG,0.444
24,ATCCGTGA,0.44
25,GTCCGCTC,1.52

row,Sequence,relative CpG methylation activity
1,GAGCGGCA,1.26
2,TGCCGCTG,0.266
3,GATCGCCG,0.81
4,GGTCGCCC,0.657
5,CACCGAGC,1.56
6,GTTCGATG,1.14
7,AGACGTGG,0.566
8,CCACGCTG,0.969
9,CCCCGTCT,1.06
10,ACGCGAAC,1.22
11,TGCCGCAA,0.238
12,CCCCGACA,1.52
13,TGACGGCT,1.37
14,TCACGCGG,0.996
15,GTTCGCTC,1.05
16,TAACGTCT,1.15
17,CCTCGTGT,0.0862
18,GGACGCGT,1.09
19,GACCGCTT,0.497

# — the supplement of paper PMC7335073
